From PubChem BioAssay AID330 (DTP/NCI, 2004) come the findings set out here.

This test has as its system P388 leukemia ip, CD2F1 mice, survival T/C. In words: NCI In Vivo Anticancer Drug Screen. Data for tumor model P388 Leukemia (intraperitoneal) in CD2F1 (CDF1) mice. As to conditions: endpoint: median survival time, higher = longer survival.
The mark [1] stands for this setting: dose: 240.0 mg/kg/injection, schedule: Q01DX005 (ip), vehicle: saline with Tween-80.

Structures are written as SMILES. Toxic doses and inconclusive results are not listed. A number of entries come with more than one value. Only these are listed. There may be further records. Values that stand side by side repeat one measurement (runs, samples, wells, individuals or studies).

Regarding `CN(C)N=Nc1cn[nH]c1C(N)=O`, the T/C by setting is: (dose: 100.0 mg/kg/injection, schedule: Q04DX003 (ip), vehicle: Klucel (hydroxypropylcellulose) (HPC)) 122 % of control and 163 % of control; (dose: 400.0 mg/kg/injection, schedule: Q04DX003 (ip), vehicle: Klucel (hydroxypropylcellulose) (HPC)) 93 % of control, 99 % of control, 165 % of control.
In the case of `Nc1nc([Se]c2nc(N)nc3c2ncn3C2OC(CO)C(O)C2O)c2ncn(C3OC(CO)C(O)C3O)c2n1` (stereo unspecified), where the note is “dose: 200.0 mg/kg/injection, schedule: Q01DX005 (ip), vehicle: distilled water + Tween-80”, the T/C is 118 % of control and 151 % of control.
Turning to `COc1cccc2c1C(=O)c1c(O)c3c(c(O)c1C2=O)C[C@@](O)(C(C)O)C[C@@H]3OC1CC(N(C)C)C(O)C(C)O1` (stereo partly specified), the T/C (dose: 0.39 mg/kg/injection, schedule: Q01DX009 (ip), vehicle: water) was 118 % of control and 151 % of control.
Turning to `Cc1cc(N2C(=O)CCSC2=S)ccc1Cl`, the T/C (dose: 100.0 mg/kg/injection, schedule: Q01DX009 (ip), vehicle: Klucel (hydroxypropylcellulose) (HPC)) is 124 % of control and 165 % of control.
Take `COc1cc2c(cc1O)N=C[C@@H]1CCC(O)N1C2=O` (mixture of isomers): the T/C (dose: 4.0 mg/kg/injection, schedule: Q01DX009 (ip), vehicle: saline) is 97 % of control and 150 % of control.
For the molecule `NCCCNCCCCNC(=O)C(O)NC(=O)CCCCCCN=C(N)N` (stereo unspecified), the T/C (dose: 25.0 mg/kg/injection, schedule: Q01DX005 (ip), vehicle: saline) is 95 % of control and 162 % of control.
With `O=C1C2C3C=CC(C2C(=O)N1CN1CCOCC1)C1C2C(=O)N(CN4CCOCC4)C(=O)C2C31` (stereo unspecified), the T/C (dose: 100.0 mg/kg/injection, schedule: Q01DX009 (ip), vehicle: saline with Tween-80) was 120 % of control and 174 % of control.
For `CCc1nc(N)nc(N)c1-c1ccc(OC)c([N+](=O)[O-])c1`, the T/C under setting [1] was 119 % of control and 178 % of control.
For the molecule `COc1cccc2c1C(=O)c1c(O)c3c(c(O)c1C2=O)C[C@@](O)(C(=O)CO)C[C@@H]3OC1CC(N)CC(C)O1` (stereo partly specified), the T/C was 100 % of control and 175 % of control (dose: 0.64 mg/kg/injection, schedule: Q04DX003 (ip), vehicle: saline); 107 % of control and 181 % of control (dose: 1.08 mg/kg/injection, schedule: Q04DX003 (ip), vehicle: saline); 111 % of control and 171 % of control (dose: 5.0 mg/kg/injection, schedule: Q04DX003 (ip), vehicle: saline).
As for `Cc1[nH]c(=O)[nH]c(=O)c1/C=C/C(=O)NC(CO)CS(C)=O` (stereo unspecified), where the note is “dose: 32.0 mg/kg/injection, schedule: Q01DX009 (ip), vehicle: water”, the T/C is reported as 110 % of control, 118 % of control, 152 % of control.
Take `COc1cc(C2CC(C)(OC)Oc3cc4c(cc32)OCO4)cc(OC)c1OC` (stereo unspecified): under setting [1], the T/C was 104 % of control and 167 % of control.
For `O=C(O)/C=N/NS(=O)(=O)c1ccc2ccccc2c1`, the T/C (dose: 100.0 mg/kg/injection, schedule: Q01DX009 (ip), vehicle: other) was 90 % of control and 196 % of control.
For `C/C1=C/C(C)C(O)C(O)C(=O)C2(C)CNC3=C(O2)C(=O)c2c(cc(C)c(O)c2C1=O)C3=O` (stereo unspecified), the T/C (dose: 8.0 mg/kg/injection, schedule: Q01DX009 (ip), vehicle: distilled water + Tween-80) is on record as 100 % of control, 103 % of control, 151 % of control.
